Counter-ions that a name gives are not always drawn. ± gives the standard deviation of the averaged measurements. Over roughly 2,600 compounds, “total cell number (DAPI+ nuclei) relative to DMSO vehicle control” has its median near -1.4; the lowest 2% begin near -23. The list shows a part of the results.

For the test, the system named is jimpy (Plp1 jimpy) mouse iPSC-derived oligodendrocyte progenitor cells. In words: total cell number (DAPI+ nuclei) relative to DMSO vehicle control (SDs above negative control mean); higher = more surviving cells. Conditions: 10 µM; 3 days.
The compound `Cc1cnc(Nc2ccc(OCCN3CCCC3)cc2)nc1Nc1cccc(S(=O)(=O)NC(C)(C)C)c1` gave a total cell number of -12.3.
Next, `Cn1ncnc1[C@H]1c2n[nH]c(=O)c3cc(F)cc(c23)N[C@@H]1c1ccc(F)cc1`: -8.84; `COc1cc(-c2ncn(/C=C\C(=O)OC(C)C)n2)cc(C(F)(F)F)c1`: -14.9.
Then `COc1ccc(-c2nc(N3CCOCC3)c3sc(CN(C)c4ncc(C(=O)NO)cn4)cc3n2)cn1`, with -10.4; and `O=C(Cc1ccccc1)Nc1nnc(CCSCCc2nnc(NC(=O)Cc3ccccc3)s2)s1`, with -1.45; and `CCCNC(=O)NS(=O)(=O)c1ccc(Cl)cc1` [Chlorpropamide], with 0.22 ± 1.9.
Then `CCN(CC)C(C)CN1c2ccccc2Sc2ccccc21` (stereo not drawn) [Ethopropazine hydrochloride], with -5.56.
`NS(=O)(=O)Cc1noc2ccccc12` [Zonisamide]: the total cell number is -5.35.
Then `C=CCc1ccc(O)c(-c2cc(CC=C)ccc2O)c1` [Magnolol], with -0.222; and `COc1ccc2c(c1)C(=O)N(CCc1ccc(S(=O)(=O)NC(=O)NC3CCCCC3)cc1)C(=O)C2(C)C` [Gliquidone], with -1.71; and `COc1ccc([C@@H]2Sc3ccccc3N(CCN(C)C)C(=O)[C@@H]2OC(C)=O)cc1` [Diltiazem HCl], with -3.33.
Compound `COc1ccc([C@@H]2Sc3ccccc3N(CCN(C)C)C(=O)[C@@H]2OC(C)=O)cc1` [Diltiazem hydrochloride] returned a total cell number of -1.43.
Then `Cc1cn([C@H]2C[C@H](N=[N+]=[N-])[C@@H](CO)O2)c(=O)[nH]c1=O` [3'-Azido-3'-deoxythymidine], with -2.72; and `Cc1cn([C@H]2C[C@H](N=[N+]=[N-])[C@@H](CO)O2)c(=O)[nH]c1=O` [Zidovudine], with -3.62; and `CC(=O)c1cc([N+](=O)[O-])c(Sc2ccc(F)cc2F)s1`, with -5.94.
Then `C[C@H](NC[C@H](O)CP(=O)(O)Cc1ccccc1)c1ccc(Cl)c(Cl)c1`, with -0.806; and `N[C@@H](Cc1c[nH]cn1)C(=O)O` [L-Histidine hydrochloride], with -0.443; and `Cc1c(NC(=O)OC[C@@H]2COCCN2)cn2ncnc(Nc3ccc4c(cnn4Cc4cccc(F)c4)c3)c12`, with -16.1.
`Cc1ccc2nc(NCCN)c3ncc(C)n3c2c1` came in with a total cell number of -13.2.
The compound `COc1ccc(C[C@H](NC(=O)[C@H](C)NC(=O)CN2CCOCC2)C(=O)N[C@@H](Cc2ccccc2)C(=O)[C@@]2(C)CO2)cc1` returned a total cell number of -12.1.
The compound `CC(C[N+](C)(C)C)OC(N)=O` (stereo not drawn) [Bethanechol chloride] came in with a total cell number of -0.253 ± 2.4.
Compound `COc1ccc(CCc2nc3cc(-c4c(C)noc4C)ccc3n2C[C@H](C)N2CCOCC2)cc1Cl` gave a total cell number of -8.03.
Then `O=C(O)c1cc2cccc([N+](=O)[O-])c2[nH]1`, with 0.272; and `CC(=O)C1=C(O)C=C2Oc3c(C(C)=O)c(O)c(C)c(O)c3C2(C)C1=O` (single isomer, unassigned; (+)) [(+)-Usniacin], with 0.54.
Next, `CCNC(=O)c1noc(-c2cc(C(C)C)c(O)cc2O)c1-c1ccc(CN2CCOCC2)cc1`: -26.3.
Then `CCCNC(C)C(=O)Nc1c(C)csc1C(=O)OC` (stereo not drawn) [Articaine HCl], with -1.22.
As to `CNCc1ccc(-c2[nH]c3cc(F)cc4c3c2CCNC4=O)cc1`, the total cell number was -5.41.
The compound `Cc1cnc(-c2cnc(NCCNc3ccc(C#N)cn3)nc2-c2ccc(Cl)cc2Cl)[nH]1` yielded a total cell number of -7.12.
Then `CC1(C)CC(=O)c2c(C(F)(F)F)nn(-c3ccc(C(N)=O)c(N[C@H]4CC[C@H](OC(=O)CN)CC4)c3)c2C1`, with -12.4; and `CC1(C)[C@@H](O)CC[C@]2(C)[C@H]3C(=O)C=C4[C@@H]5C[C@@](C)(C(=O)O)CC[C@]5(C)CC[C@@]4(C)[C@]3(C)CC[C@@H]12` [Enoxolone], with 1.6.
Next, `COc1ccc2c(c1)c(CC(=O)O)c(C)n2Cc1ccc(Cl)cc1` [1-(4-Chlorobenzyl)-5-methoxy-2-methylindole-3-acetic acid]: -1.66; `COC(=O)[C@@H](N)Cc1ccc(O)c(O)c1` [L-3,4-Dihydroxyphenylalanine methyl ester hydrochloride]: 0.202.
Then `C[C@H]1COC2(CCN(c3nc(=O)c4cc(C(F)(F)F)cc([N+](=O)[O-])c4s3)CC2)O1` (racemic) [BTZ043 Racemate], with -1.69.
Consider `O=C(O)c1ccc(-n2nc(-c3ccccc3O)nc2-c2ccccc2O)cc1` [Deferasirox], for which the total cell number is -0.688.
Next, `COCCOC(=O)C1=C(C)NC(C)=C(C(=O)OC(C)C)C1c1cccc([N+](=O)[O-])c1` (stereo not drawn) [Nimodipine]: -6.64 ± 12; `NCCS` [Cysteamine hydrochloride]: -1.26.
Then `NCCS` [Cysteamine HCl], with -0.832.
In turn, `CN1C(C(=O)Nc2ccccn2)=C(O)c2ccccc2S1(=O)=O` [Piroxicam] displayed a total cell number of -0.356 ± 0.79.
Next, `COc1c(C)c2c(c(O)c1C/C=C(\C)CCC(=O)OCCN1CCOCC1)C(=O)OC2` [Mycophenolate Mofetil]: -13.5; `CC(N)(Cc1ccc(O)cc1)C(=O)O` (racemic) [DL-alpha-Methyl-p-tyrosine]: 0.65.
Then `COC(=O)CCc1ccc(OCC(O)CNC(C)C)cc1` (stereo not drawn) [Esmolol HCl], with 0.808; and `O=C(NCc1cccc(O)c1)Nc1nc(-c2ccncc2)cs1`, with -7.77.
Next, `NCC(=O)CCC(=O)O` [5-Aminolevulinic acid HCl]: -0.691.
`C[C@H](NC(=O)CCc1nc2ccccc2c(=O)[nH]1)c1ccccc1` displayed a total cell number of 0.634.
Next, `CN1CCC(CNc2ccc3ncc(-c4cccc(OC(F)(F)F)c4)n3n2)CC1` [SGI-1776 free base]: -14.8; `Cc1ccc(Sc2ccccc2N2CCNCC2)c(C)c1`: -16.6.
Then `O=C(O)C[C@H](O)C[C@H](O)/C=C/c1c(C2CC2)nc2ccccc2c1-c1ccc(F)cc1` [Pitavastatin Calcium], with -8.22; and `Cc1ccc(C)c(OCCCC(C)(C)C(=O)O)c1` [Gemfibrozil], with -0.831; and `O=c1[nH]c2cc(Cl)ccc2c(O)c1-c1cccc(Oc2ccccc2)c1`, with -1.89.
Next, `O=C(CCCN1CCC(O)(c2ccc(Cl)cc2)CC1)c1ccc(F)cc1` [Haloperidol]: -2.63 ± 0.44; `COc1cc2c(cc1OC)[C@@H]1Cc3ccc(OC)c(OC)c3CN1CC2` [Rotundine]: -1.92; `Cc1cccc(-c2[nH]ncc2-c2ccc3ncccc3n2)n1`: -0.693 ± 1.4.
Regarding `Cc1ccccc1C(=O)Nc1ccc(C(=O)N2CCCC(N(C)C)c3ccccc32)cc1` (stereo not drawn) [Mozavaptan], the total cell number was -3.94.
Then `O=C(NCCCNc1nc(Nc2cccc(NC(=O)N3CCCC3)c2)ncc1I)c1cccs1`, with -23.5; and `NCCCCN` [Putrescine dihydrochloride], with -0.41; and `CN(Cc1ccc(C(C)(C)C)cc1)Cc1cccc2ccccc12` [Butenafine HCl], with 5.88.
Next, `S=c1[nH]cnc2nc[nH]c12` [Mercaptopurine (6-MP)]: -5.89; `NS(=O)(=O)c1ccc(NC(=O)Nc2ccc(F)cc2)cc1`: -0.583; `CCCCC1(C2CCCC2)Cc2cc(OCC(=O)O)c(Cl)c(Cl)c2C1=O` (stereo in doubt) [R(+)-Butylindazone]: -0.443.
Take `Cc1cc(F)c(Nc2ncnc3cc(OCc4ccccc4)ccc23)cc1O`: the total cell number was -9.22.
Then `Nc1nc2c(ncn2[C@@H]2O[C@H](CO)[C@@H](O)[C@@H]2O)c(=O)[nH]1` [Ara-G hydrate], with -1.45; and `O=c1[nH]c(=O)n([C@H]2C[C@H](O)[C@@H](CO)O2)cc1C(F)(F)F` [Trifluridine], with -14.5; and `Cc1cc(C#N)cc(C)c1Oc1nc(Nc2ccc(C#N)cc2)nc(N)c1Br` [Etravirine (TMC125)], with 0.592.
Then `Cc1nnc(SCC2=C(C(=O)O)N3C(=O)[C@@H](NC(=O)Cn4cnnn4)[C@H]3SC2)s1` [Cefazolin sodium], with -1.93; and `Cn1cncc1[C@@](N)(c1ccc(Cl)cc1)c1ccc2c(c1)c(-c1cccc(Cl)c1)cc(=O)n2C` [Tipifarnib], with -21.4; and `O=C1OC(=O)[C@H]2[C@@H]1[C@@H]1CC[C@H]2O1` [Norcantharidin], with -4.44.
Next, `O=C(NNc1ccccc1)c1ccncc1`: -0.0247.
In turn, `CC(C)n1cnc2c(NCCc3ccc(O)cc3)nc(-c3csc4ccccc34)nc21` [StemRegenin 1 (SR1)] had a total cell number of -8.19.
The compound `CC(C)Cn1cnc2c(N)nc3ccccc3c21` [Imiquimod] registered a total cell number of -0.448.
Then `CN(C)c1ccc(-c2nc3ncc(Cl)c(N4CCN(CC(=O)Nc5nccs5)CC4)c3[nH]2)cc1`, with 1.85; and `NC(=O)N1c2ccccc2CC(=O)c2ccccc21` [Oxcarbazepine], with -1.04; and `NC1=NCC2c3ccccc3Cc3ccccc3N12` (stereo not drawn) [Epinastine HCl], with 1.45.
Next, `NC1=NCC2c3ccccc3Cc3ccccc3N12` (stereo not drawn) [Epinastine hydrochloride]: -2.66.
`Oc1nc(-c2ccc(C(F)(F)F)cc2)nc2c1CSCC2` returned a total cell number of -8.16.
Then `CSc1c(C)c(SC)n2ccncc12` [Oltipraz metabolite M2], with -3.2; and `COc1cc2c(cc1OC)-c1c/c(=N\c3c(C)cc(C)cc3C)n(C)c(=O)n1CC2` [Trequinsin hydrochloride], with -0.581; and `Cc1cccc(Nc2ccncc2S(=O)(=O)NC(=O)NC(C)C)c1` [Torsemide], with -0.795.
Next, `Cc1ccc(Cl)cc1N(CC(=O)Nc1c(F)cccc1F)S(C)(=O)=O`: -0.321; `O=C(c1ccc(F)cc1)N1CCC[C@H](c2nc(-c3ccc(F)cc3)no2)C1`: -0.73.
Then `O=C1N=C(O)NC1(c1ccccc1)c1ccccc1` [Phenytoin sodium], with 0.728 ± 1.1; and `CCOC(=O)[C@@H](N)Cc1ccc(O)c(O)c1` [L-Dopa ethyl ester], with -2.07; and `O=C1Nc2ccc(I)cc2/C1=C/c1cc(Br)c(O)c(Br)c1`, with -2 ± 1.2.
In turn, `CN(C)c1cc(NC(=O)CNC(C)(C)C)c(O)c2c1C[C@H]1C[C@H]3[C@H](N(C)C)C(O)=C(C(N)=O)C(=O)[C@@]3(O)C(O)=C1C2=O` [Tigecycline] came in with a total cell number of -2.34.

These data come from the supplement of paper PMC6135742.
